Usually IC50 stands for the midpoint of a concentration-inhibition curve. For orientation: CC50 means the concentration at which the toxic effect on the cells reaches its halfway point.

Active and inactive are the calls of the source.

The target in experiment [1] is T1, Nuclear receptor subfamily 0 group B member 1 (Homo sapiens, UniProt P51843).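 Also: HEK293T cells transfected with SF-1 and DAX-1 plus StAR promoter luciferase reporter.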
T1 sequence (P51843 whole entry): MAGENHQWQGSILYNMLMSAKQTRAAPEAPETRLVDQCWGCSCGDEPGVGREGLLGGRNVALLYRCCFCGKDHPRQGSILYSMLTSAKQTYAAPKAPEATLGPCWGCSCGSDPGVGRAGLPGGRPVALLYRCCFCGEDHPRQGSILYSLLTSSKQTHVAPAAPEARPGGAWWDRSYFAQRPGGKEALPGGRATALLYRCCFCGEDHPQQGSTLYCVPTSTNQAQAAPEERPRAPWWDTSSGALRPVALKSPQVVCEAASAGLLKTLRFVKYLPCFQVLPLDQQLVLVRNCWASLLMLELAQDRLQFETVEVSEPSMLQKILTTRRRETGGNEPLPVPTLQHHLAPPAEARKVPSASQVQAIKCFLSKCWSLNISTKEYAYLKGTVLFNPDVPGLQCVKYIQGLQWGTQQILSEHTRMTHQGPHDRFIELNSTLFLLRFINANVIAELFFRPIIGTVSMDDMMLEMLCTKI
The format is functional, cell-based.

Experiment [2] in a line: THP-1 cell cytotoxicity, dose response, cytotoxicity control for Vif-APOBEC3G degradation inhibitor project, THP-1 cells (AID 1117359). The format is functional. Conditions: Human immunodeficiency virus 1, THP-1.
A further experiment is described as follows: cells. The format is functional, cell-based.

In the case of `COc1c(O)cc2c(c1OC)-c1ccc(OC)c(=O)cc1C(NC(C)=O)CC2` (stereo not drawn), the IC50 (in experiment [1]; in “cells”) was inactive: > 67.4 µM throughout. Moreover, the CC50 in experiment [2] was active: > 40 µM.
